According to the supplement of paper PMC3334620:
Whole data set: some 33,000 sequences, median “E-score (-0.5 to 0.5)” near -0.011, cut for the highest 2% near 0.28. This is one part of the list.

What follows are sequences tested against T1, Gcr1 (UniProt P07261) (assay: PBM E-score (8-mer binding enrichment) (E-score (-0.5 to 0.5)); higher = stronger / more preferred TF binding; most listed sequences are background and not binding sites). Details: protein concentration: 100 nM; construct: GST-full length.
T1 sequence: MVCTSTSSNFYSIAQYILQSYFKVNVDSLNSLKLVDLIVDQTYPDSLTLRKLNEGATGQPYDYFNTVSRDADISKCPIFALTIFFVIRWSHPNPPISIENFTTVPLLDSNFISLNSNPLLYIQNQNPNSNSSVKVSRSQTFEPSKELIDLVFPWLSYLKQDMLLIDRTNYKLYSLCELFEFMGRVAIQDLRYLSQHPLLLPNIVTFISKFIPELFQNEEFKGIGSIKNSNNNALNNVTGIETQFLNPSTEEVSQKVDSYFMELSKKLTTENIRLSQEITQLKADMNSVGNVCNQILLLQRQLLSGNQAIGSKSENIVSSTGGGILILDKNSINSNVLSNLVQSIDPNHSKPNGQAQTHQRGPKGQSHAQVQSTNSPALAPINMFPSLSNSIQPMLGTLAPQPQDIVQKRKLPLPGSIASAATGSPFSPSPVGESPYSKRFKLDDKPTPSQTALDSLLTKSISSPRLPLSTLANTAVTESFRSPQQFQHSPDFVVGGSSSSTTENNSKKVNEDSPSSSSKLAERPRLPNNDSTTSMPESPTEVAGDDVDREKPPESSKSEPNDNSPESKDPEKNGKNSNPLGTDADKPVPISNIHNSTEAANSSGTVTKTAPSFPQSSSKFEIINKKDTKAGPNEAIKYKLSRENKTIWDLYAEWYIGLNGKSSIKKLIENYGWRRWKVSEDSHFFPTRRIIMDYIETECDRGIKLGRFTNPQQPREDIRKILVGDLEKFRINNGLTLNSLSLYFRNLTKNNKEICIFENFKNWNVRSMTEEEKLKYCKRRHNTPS
Outline: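 E-scores (a modified Wilcoxon-Mann-Whitney statistic) were assigned by the Universal PBM Analysis Suite to every ungapped eight-base word pooled with its reverse complement. The input came from universal all-10-mer Agilent arrays made double-stranded by primer extension and probed with GST-tagged yeast transcription factors at about 100-200 nM. Fluorescent anti-GST detected bound protein, and masliner normalised the scans.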

Sequence | PBM E-score
AAGGCGGC | -0.0016
AAGGAAAA | -0.11
CCAGTATC | 0.245
CGATCCTA | 0.00296
AGGGAACC | 0.203
GAGCTCGC | -0.155
GAGTGTAA | -0.0829
ACAACGCG | 0.0662
GGCTAGCA | -0.0895
CCCGTGCG | -0.0483
CATGACCA | -0.0378
ATAATCAT | 0.194
ACCAGATC | 0.245
CCTTGAGA | -0.162
CTATGCGA | -0.14
AGGGTAAA | -0.106
CCAATCAA | 0.124
AACATATG | -0.0382
AACTTAAT | 0.0317
ACATAGTA | 0.0983
CTGAGGAC | 0.0367
GGTGTCGA | -0.202
ACATCTGC | 0.0387
ACCTACCT | -0.0768
ATGACGCC | -0.0323

Sequence | PBM E-score
AAATATGA | 0.123
ATCGAACG | -0.0939
AAGCACCC | 0.283
CCGAATTA | 0.178
CACGGTTC | -0.167
GATCGTCC | 0.0312
ACTACGTC | -0.0471
ATATCTTC | -0.00707
GAATGGGA | 0.231
CTTGCCCC | -0.0693
CATAATCC | -0.00216
AGAACAGG | 0.122
TTGTTAAA | -0.00461
GCGCAGTA | -0.18
TACGAACA | 0.0261
CAAATTGA | -0.0434
AAGCTGCA | -0.0206
AAGCCTCT | 0.0523
AAGGTGAG | -0.105
AAAAACTG | -0.0509
GAGGCTAA | -0.0285
CGGCAGGA | -0.0947
CGGTGGCC | -0.139
ACGCTAGT | 0.0822
TAGATGAA | -0.0625

Sequence | PBM E-score
CCCGCAAC | 0.231
CTACTGCC | -0.0769
GCCCTTGA | -0.0468
CGGAAGAA | -0.0973
CAACCTCA | -0.0311
CAGCATAC | -0.0944
CCCCACTA | 0.196
AGACGCGG | 0.238
GCCACTTA | 0.184
ATCTATTG | 0.159
TACGACTA | -0.0181
GGGAATGA | 0.147
GAGGTGCC | 0.281
AGAGATCT | -0.271
AGGCACAA | -0.0212
GAACCGTC | 0.0271
ACGGGCTC | -0.153
GAGTTACC | -0.264
ACGGTTCA | -0.279
CAGAGCTC | -0.158
GCGCGACA | 0.175
GCACCAAC | 0.197
ATATGCTC | -0.175
ATACGCAT | 0.23
TTCTGCAA | 0.134

Sequence | PBM E-score
AAGATAAG | 0.177
ACCTAGTA | -0.0412
ACCTATCA | -0.113
CTATACGA | -0.0137
CACGGCGG | -0.149
AATCATCT | -0.251
AGATCGTG | -0.0376
AAGGCCCA | -0.0877
CACGCATG | -0.0499
CCTGGTCA | 0.0605
CGACTGGA | 0.316
GGTCCCAA | 0.066
AACCGAAA | 0.00892
AAGACTTA | -0.272
AGTCTGCC | -0.193
AGACCTGC | -0.135
CATACCGA | 0.0765
CCCCCAGC | -0.271
ATGTGACC | 0.216
ATGAGAGA | -0.136
AACCAAGT | 0.144
CTGAGTCA | 0.0975
AGACGATA | 0.0287
AATGCGGA | -0.0747
GGGCTGTA | -0.176

Sequence | PBM E-score
TACCGGTA | 0.266
TCTGCCAA | 0.00421
GGCCTTAA | -0.223
AAGCAGGA | 0.0293
CCATATGG | 0.0577
TAGGTTCA | -0.119
CCCCTTGA | -0.115
ATAGGAGA | -0.0471
GGCCGTAA | 0.0853
AGCTAGAT | 0.127
GCCATACA | 0.0945
GATGATCA | -0.105
ACTAATCG | -0.157
GAGCACGA | 0.0594
CGCGCTAG | -0.0588
TACTTCCA | 0.121
ATCCACAC | -0.0771
AAGTGTCG | -0.041
CGTCGGTC | -0.069
AATGTAAA | 0.106
GCGGGGAC | -0.126
GTGGTTAA | -0.0424
AGGTATAA | -0.0419
CGTCGTGC | -0.103
TGCCTACA | 0.0247

Sequence | PBM E-score
ACTAGGGG | 0.0945
CGGCATGC | -0.147
AGAATGCA | 0.115
GCAGACAC | 0.0309
ATCAAATG | -0.00895
CCGGAATA | 0.0263
GTTAAGCA | 0.0245
GTTAGCTA | -0.0466
AAAGTCAA | -0.211
ACGGCCAG | -0.0766
AGTTAAAC | 0.0443
AACCATGC | 0.103
CTGCCAAC | 0.0573
ACTTAGGC | 0.0458
ACCCCGTC | 0.0174
TAAATGAA | -0.135
GCTCTGAC | -0.157
ACCACATG | 0.0716
CCGGAACA | -0.0359
GGCCCAAC | -0.128
CCTTATTC | -0.0501
ACACCGCC | -0.0336
ACAACGTA | -0.042
AGAACGGG | -0.0637
CTGAAAAA | 0.0942

Sequence | PBM E-score
CACTCTAG | 0.0574
CCCGGAGG | 0.0461
GATCACAC | -0.179
CGGTTCCA | 0.189
GCTGTCAC | 0.00808
AGGGTTTC | -0.043
CGATGCAC | -0.239
AACAAGAT | 0.0921
CAACCGCG | -0.152
AGTCCAGG | -0.161
GCAGGCAA | -0.0468
CTATCTAA | 0.0445
AGGGTTAC | -0.155
CGGCCCCG | 0.0571
AAATCAAT | -0.0863
CCCATTGC | -0.1
GCGGACGC | 0.151
CAAACATC | -0.0208
AACGCGCC | 0.201
AAATAGTT | 0.138
TATCAGGA | 0.131
ACAGGTAC | -0.137
